Our source for the GI50 and TGI values is PubChem BioAssay (NCI).

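These data come from cells grown in 96-well plates and exposed to compound for 48 hours at five concentrations. GI50 = concentration required for 50% inhibition of growth. TGI: concentration producing complete growth inhibition.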

This test has as its system NCI-H322M lung. The experiment in a line: inhibition of tumour cell growth, NCI panel, 48 h.
For the compound `CC(=O)Nc1nc(C)c(-c2csc(Nc3ccccc3)n2)s1`, the GI50 is 5.72 µM and the TGI turned out to be 18.8 µM.
On the same counts, the results for `CCCCCCCCNC(=O)c1ccc(Cn2c(CCCC)nc3c(N)nc4ccccc4c32)cc1` are 3.11 µM and 10.6 µM.
In the case of `COc1cnc2c(c1)C(=O)c1c-2n(CCCNCC2CC2)c(=O)c2cc(F)ccc12`, the GI50 is 1.14 µM and the TGI came to 4.54 µM.
